Experimental data published in PubChem BioAssay AID1508623 (National Center for Advancing Translational Sciences (NCATS), 2021).
Out of some 48,000 compounds screened, about 450 (0.94%) were called active. Roughly 19% stayed inconclusive and do not appear here. Calls follow the shape of the dose curve; as a rule, active = well fitted inhibition curve with a large enough effect; inconclusive = small, poorly fitted or top-dose-only effect; inactive = no such curve, though single readings can be large or run the other way. The list shows a part of the results.

Assay: Primary qHTS for Identification of Small Molecule Inhibitors of Huntingtin Promoter Activity; also: nearly all actives have a fitted effect of over 50% in size
Settings: HEK293 HTT promoter firefly luciferase reporter (activity 0% = vehicle and -100% = no light), 24 h; series mostly up to 57.5 µM; activity change, negative = inhibition: at the top concentration
Excerpt: Assay Provider: Russell L. Margolis M.D.
Department Neurology, Johns Hopkins University School of Medicine, Baltimore, MD
Huntington's Disease (HD) is a neurodegenerative disorder caused by a CAG repeat expansion in exon 1 of huntingtin (HTT). While there are currently no disease-modifying treatments for HD, recent efforts have focused on development of nucleotide-based therapeutics to lower HTT expression. As an alternative to siRNA or oligonucleotide methods, we hypothesized that suppression of HTT expression might be accomplished by small molecules that either (1) directly decrease HTT expression by suppressing HTT promoter activity or (2) indirectly decrease HTT expression by increasing the promoter activity of HTT-AS, the gene antisense to HTT that appears to inhibit expression of HTT.
We developed and employed a high throughput screen for modifiers of HTT and HTT-AS promoter activity using luminescent reporter HEK293 cells; of the 52,041 compounds tested, we identified 898 replicable hits. We used a rigorous stepwise approach to assess compound toxicity and the capacity of the compounds to specifically lower huntingtin protein in 5 different cell lines, including HEK293 cells, HD lymphoblastoid cells, mouse primary neurons, HD iPSCs differentiated into cortical-like neurons, and HD hESCs. We found no compounds which were able to lower huntingtin without lowering cell viability in all assays, though the potential efficacy of a few compounds at non-toxic doses could not be excluded.
SEQUENCE No. (1, 2, 3, etc.); […] (e.g., Cells, Incubation, Reagent, etc.); VALUE and DESCRIPTION.
1; Reagent; 4 uL; 2,500 Hek293 luciferase reporter cells per wells
3; Compound; 23 nL; Control inhibitor / compound library
5; Reagent; 2.5 uL; Firefly Luc reagent; Dual-Glo Luciferase Reporter Assay System (Promega)
6; Time; 10 min; room temperature incubation
7; Detection; Luminescence; FLuc
NOTES (numbers refer to sequence above)
1; High-throughput screening, measuring luminescence from a Hek293 luciferase reporter, was performed in 1,536 well white-walled tissue-culture treated plates. 2,500 cells were plated in 4 µL of Opti-MEM per well using a Multidrop Combi Reagent Dispenser (ThermoFisher).
2; Assay plates were cultured for 24 hours.
3; Control inhibitor (PTC124; final concentration of 50 uM) and compound library (at final concentrations of 460 nM - 57.5 uM) were added to the assay plate using the Kalypsis Pintool Robotic System equipped with 1536 pinheads.
4; Cells were then incubated for 24 hours at 37 degrees C prior to luminescence measurements.
5; In all cases, luminescence was measured using the Dual-Glo Luciferase Reporter Assay System (Promega) following the manufacturer's instructions.
6; Room temperature incubation.
7; Luminescence signal was obtained using the PerkinElmer ViewLux plate reader. Results were normalized to vehicle control (0% activity) and zero RLU (-100% activity).

Activity change, negative = inhibition, inactive:
CCc1nnc(SCc2nc(-c3ccccc3F)oc2C)c2cc3sccc3n12 -1.72%
Cc1cccc(-c2noc(-c3ccc(NC4CCCC4)c([N+](=O)[O-])c3)n2)c1 10.3%
Cc1ccc(OCC(=O)Nc2cccc(C(=O)OCc3cc(=O)n4cc(C)sc4n3)c2)cc1 -19.5%
O=C(CC1N=C2c3ccccc3N=C(SCc3cccc(Cl)c3)N2C1=O)NC1CCCCC1 (stereo not given) -11.4%
COc1cc(OC)c(NC(=O)c2nc(-c3ccncc3)no2)cc1Cl 22.7%
COc1ccc(NC(=O)CSc2nnc(-c3nnn(-c4ccc(F)cc4)c3C)o2)cc1 11.3%
CCCCCNC(=O)C1CCC(Cn2c(=O)c3sccc3n(CC(=O)N3CCCC3)c2=O)CC1 (stereo not given) 13.7%
Cn1c(=NC(=O)c2ccc(F)cc2)sc2cc(Br)ccc21 61.5%
CCOCN(C(=O)Cn1c(C)nc2ccccc21)c1c(C)cccc1CC -7.96%
Cc1ccc(Cl)cc1-n1c(=O)cc(N2CCN(c3ccccc3)CC2)[nH]c1=O -14.5%
Cc1cc2n(n1)CCCN2C(=O)Nc1ccccc1F 4.64%
CCc1ccccc1NC(=O)CC(C)n1nc(C)cc1C (stereo not given) 2.08%
CCCCCC[C@@H](CCC)C(=O)O -6.51%
Cc1ccc(N2C(=O)c3n[nH]c(C)c3C2c2ccc(C(C)C)cc2)cc1 (stereo not given) 4.74%
COc1cccc(C(=O)Nc2ccccc2-c2nc(-c3ccc(C)cc3)no2)c1 31.6%
CCOC(=O)c1c(S(=O)(=O)N2CCN(c3ccccc3OC)CC2)c(C)n(C)c1C -18.9% [at 11.5 µM]
CC(=O)c1cccc(NC(=O)c2sc3nc4c(cc3c2N)CCCC4)c1 15.9%
COc1cc(OC)c(NC(=O)NCc2ccc3c(c2)CCN3C(C)=O)cc1Cl -37.3%
COc1cc2c(cc1OC)C(=O)C(CC1CCN(Cc3ccccc3)CC1)C2 (stereo not given) -0.211%
O=c1c2cc3c(cc2n(Cc2cccc(F)c2)c(=O)n1Cc1nc(-c2ccccc2)no1)OCO3 -10.3%
CCCCC(CC)CN1CN(CC(CC)CCCC)CC(C)(N)C1 (stereo not given) -0.716%
CCOc1ccc(NC(=O)C2CCCN(c3nnc(-n4c(C)ccc4C)s3)C2)cc1 (stereo not given) -13.1%
CCc1ccc(NCc2cc3ccc(OC)cc3n(CC(=O)Nc3cccc(Cl)c3C)c2=O)cc1 -10.6%
Cc1cccn2c(=O)c(C(=O)NCCc3ccc(Cl)cc3)cnc12 41.5%
CC(=O)c1ccc(NC(=O)C2CCC(CNS(=O)(=O)c3cccc4nsnc34)CC2)cc1 (stereo not given) -0.0802% [at 11.5 µM]
CC(C)(C)OC(=O)N1CCC(c2c(C(=O)N3CCN(C(=O)c4ccco4)CC3)cnn2-c2ccc(Cl)cc2)CC1 4.79%
CCCNS(=O)(=O)c1cc(-c2nnc3c4ccccc4c(C)nn23)ccc1OC 7.26%
Cc1ccc(C(=O)NCc2nnnn2-c2ccc(C)c(C)c2)cc1 -10.6%
CCCCCCn1c(=O)c2c(ncn2C)n(C)c1=O 8.7%
COc1ccccc1NC(=O)c1oc2ccccc2c1NC(=O)c1ccccc1C(F)(F)F 5.41%
CCOc1ccccc1NC(=O)C(C)Sc1nc(-c2ccccc2)c(C#N)c(=O)[nH]1 (stereo not given) -19.6%
CCc1cccc(NC(=O)c2cnc(SC)nc2-c2ccccc2)c1 -18.8%
Cc1nc2sc(C(=O)Nc3ccc(F)cc3)c(N)c2c(-c2ccc(Br)cc2)c1C(=O)Nc1ccc(Cl)cc1 -10.6%
CCOc1ccc(/C=C/c2nc(C#N)c(NC(C)CC)o2)cc1 (stereo not given) -11.1%
Cc1cc2nc(-c3ccc(OCc4ccc(F)cc4)cc3)cc(C(F)(F)F)n2n1 -3.58%
Cc1ccc(C)c(Cn2c(=O)n(Cc3ccc4c(c3)OCO4)c(=O)c3oc4ccccc4c32)c1 -5.83%
O=C(Nc1ccc(NC(=O)c2cccs2)cc1)c1cccc(Br)c1 21.9%
CCOc1ccc(Sc2cc(C(=O)NC(C)CC)c3ccccc3n2)cc1 (stereo not given) -14.4%
COc1ccc(N2CCN(S(=O)(=O)c3ccc(OC)c(-c4noc(C)n4)c3)CC2)cc1 4.63%
O=C(Cn1ncc2c3ccccc3n(Cc3ccc(Cl)cc3)c2c1=O)NCc1cccs1 -16.4%
O=c1cc(-c2ccc(F)cc2)nc(SCc2nc(-c3cccc(Cl)c3)no2)[nH]1 1.75%
Cc1cc(NC(=O)CSc2nc3c([nH]c4ccccc43)c(=O)n2-c2ccccc2)no1 -12.5%
O=C(C1CCCN(S(=O)(=O)c2ccc(Br)s2)C1)N1CCN(c2ccc(F)cc2)CC1 (stereo not given) -6.63%
Cc1ccc(C2CC(=O)N(Cc3ccccc3)c3c2c(C)nn3-c2nc(C)cc(C)n2)cc1 (stereo not given) -19.8%
Cc1ccc2c(=O)cc(C(=O)Nc3sc4c(c3C(N)=O)CCCC4)oc2c1 -11.5% [at 11.5 µM]
O=C(C1CCN(S(=O)(=O)Cc2ccccc2)CC1)N1CCN(c2ccc(F)cc2)CC1 -29.8%
COc1ccc(C2C(=O)N(C3CCCCC3)CC(=O)N2CCc2ccc(OC)c(OC)c2)cc1 (stereo not given) -8.41%
Cc1ccc(C)c(CN2C(=O)C3(c4ccccc42)N(c2cccc(C(F)(F)F)c2)C(=O)CS3(=O)=O)c1 (stereo not given) -28.2%
Cc1ccc2oc(-c3cc(NC(=O)c4ccc5c(c4)OCCO5)cc(C)c3O)nc2c1 -11.9%
COc1cc(NC(=O)c2nc3ccccc3nc2C)cc(OC)c1OC 8.91%
CCC(C(=O)N1CCN(c2ccccc2F)CC1)n1nc(C)c2sc3ccccc3c2c1=O (stereo not given) -12.2%
COc1cc(CN(C(=O)c2cccc(Cl)c2)c2ccccn2)cc(OC)c1OC -33.9%
Cc1ccc(Cl)cc1N1CCN(C(=O)c2cccn3c(=O)c4cc(Cl)ccc4nc23)CC1 0%
Cc1ccc(-n2nc(C(=O)Nc3ccc(Cl)cn3)c3c4ccccc4n(C)c3c2=O)cc1 -6.37%
COc1ccc(NC(=O)CSc2nc(-c3ccco3)cc(C(F)(F)F)n2)c(OC)c1 0.877%
CCCc1nn2c(=O)cc(COc3ccc(/C=C(\C#N)C(=O)Nc4ccc(F)cc4)cc3)nc2s1 -8.18%
CCN(CC)C(=O)Cn1c(SCCOc2ccc(Cl)cc2)nc2ccccc21 -18.4%
O=C(CCS(=O)(=O)c1cc2c(cc1Cl)NC(=O)CO2)NCCc1ccc(Cl)cc1 -6.32%
CC(=O)N1c2ccccc2C(=O)C1N1CCN(c2ccc(F)cc2)CC1 (stereo not given) -24.3%
COc1ccc(NC(=O)c2ccc(CNS(=O)(=O)c3ccc4c(c3)C(C)(C)C(=O)N4C)cc2)cc1 -19.5%
O=C(Nc1ccc2c(c1)N(C1CCCC1)C(=O)c1ccccc1S2)c1cccc(F)c1 -18.3%
CC(C)Oc1ccc(CNC(=O)CCn2c(=O)c3cccn3c3ccc(F)cc32)cc1 -7.82%
COc1cccc(-n2c(=O)c3c(C)c(C(=O)N(C)C)sc3n(CC(=O)Nc3ccc(C)cc3Cl)c2=O)c1 -8.54%
COc1cccc(CNC(=O)C2CCCN(c3ncnc4onc(-c5ccc(F)cc5)c34)C2)c1 (stereo not given) -6.28%
CC(C)OCCCNC(=O)CN1C(=O)CSc2ccc(S(=O)(=O)N3CCCCC3)cc21 -10.3%
Cc1ccc(Cl)cc1NCc1nnc2n1CCCCC2 -8.32%
O=C1CC(c2nc(-c3cccc(Cl)c3)no2)CN1c1ccc2c(c1)OCCO2 (stereo not given) -29.8%
Cc1n[nH]c(C)c1S(=O)(=O)N(CC(=O)NCc1ccccc1Cl)c1ccc(C(C)C)cc1 -23.8%
Cc1ccc(-n2nnnc2C2CCN(S(=O)(=O)c3ccc(OC(F)(F)F)cc3)CC2)cc1 -8.25%
CCN(C(=O)Cn1c(=O)oc2cc(S(=O)(=O)N3CCCC3)ccc21)c1cccc(C)c1 -23.2%
CCOc1ccc(CCNC(=O)c2c(C)oc3ncnc(N4CCOCC4)c23)cc1 -13.7%
Cc1cc(C)cc(NC(=O)CN(C)S(=O)(=O)c2ccc3[nH]c4c(c3c2)CCCC4)c1 -18.6%
COCCCNC(=O)CSc1nc2ccccc2c(=O)n1Cc1ccco1 5.29%
CCOc1cccc(CNc2ccc(O)cc2)c1OCc1ccccc1Cl -22%
COc1ccc(CNC(=O)c2ccc3[nH]c(C)c(C)c3c2)c(OC)c1 -4.39%
COc1ccc(C(=O)Nc2ccc(OCc3cc(=O)n4ccccc4n3)cc2)cc1 7.58%
CCc1nnc2c(NCCc3ccc(OC)c(OC)c3)nc3ccccc3n12 -4.66%
Cc1ccc(C)c(N2CCN(C(=O)CCS(=O)(=O)c3ccc4c(c3)CC(=O)N4C)CC2)c1 -92.9%
CCN(CC)CCOC(=O)C(c1ccccc1)C1CCCCC1 (stereo not given) -6.13%
COc1cccc(C2CC(=O)Nc3c2c(=O)n(C)c2ncnn32)c1OC (stereo not given) -3.05%
COC(=O)c1c(NC(=O)COc2cc(C)c(Cl)c(C)c2)sc2c1CCCC2 -2.92%
COc1ccc(OC)c(S(=O)(=O)Nc2cc3c(C(C)=O)c(C)oc3c3ccccc23)c1 -28.1%
COc1ccc(-c2nnc(SCC(=O)Nc3ccc(C(C)=O)cc3)nc2-c2ccc(OC)cc2)cc1 6.17%
Cc1ccc(OCC(=O)N(Cc2ccco2)C2CCS(=O)(=O)C2)cc1 (stereo not given) -1.83%
CC(Oc1ccc(F)cc1)C(=O)Nc1cc(-c2ccc(F)c(F)c2)no1 (stereo not given) -6.37%
Cc1cccc(OCC(=O)Nc2ccc(-c3nc4cc(C)ccc4o3)c(O)c2)c1 110%
CCC1CN(C(=O)N2CCC(C(=O)NCCC3=CCCCC3)CC2)c2cc(C)ccc2O1 (stereo not given) -7.49%
CCn1cc2nc(SCc3ccc(C)cc3)n(CCc3ccccc3)c(=O)c2n1 -13.4%
COc1ccc(S(=O)(=O)N(CC(=O)N(C)Cc2ccccc2)c2ccc(Cl)cc2)cc1 -21.1%
Cc1ccc(OCC(=O)Nc2ccc(Cl)c(-c3nc4ccccc4[nH]3)c2)cc1C -21.1%
COc1ccc(NC(=O)CSc2nnc(NC(=O)Nc3ccccc3)s2)c(OC)c1 -1.81%
COc1cc(Cc2cnc(N)nc2N)cc(OC)c1OC -1.65%
CCc1ccc(NC(=O)CSc2nc3ccccc3nc2Cc2ccccc2OC)cc1 -0.612%
Cc1cc(C)cc(NC(=O)N2CCN3CCCCC3C2)c1 (stereo not given) 11.6%
CC(C)(C)c1ccc(C(=O)NC(Cc2c[nH]c3ccccc23)C(=O)OCC(=O)c2ccccc2)cc1 (stereo not given) 5.72%
